Patent publication US20100075953A1, “SUBSTITUTED PIPERAZINES, (1,4) DIAZEPINES, AND 2,5-DIAZABICYCLO (2.2.1) HEPTANES AS HISTAMINE H1 AND/OR H3 ANTAGONISTS OR HISTAMINE H3 REVERSE ANTAGONISTS” (Glaxo Group Limited, priority 2002, published 2010)
Some results were stated once for a whole list of compounds, not compound by compound.

Tests used:
human H1 receptor = target: T1, human H1 receptor (Homo sapiens, UniProt P35367); test: Histamine H1 functional antagonist assay; assay type: cell-based; conditions: CHO cells expressing human H1, suppression of histamine induced increase in fluorescence (FLIPR)
T1 construct: expressed in transfected cells
T1 sequence (P35367 whole entry): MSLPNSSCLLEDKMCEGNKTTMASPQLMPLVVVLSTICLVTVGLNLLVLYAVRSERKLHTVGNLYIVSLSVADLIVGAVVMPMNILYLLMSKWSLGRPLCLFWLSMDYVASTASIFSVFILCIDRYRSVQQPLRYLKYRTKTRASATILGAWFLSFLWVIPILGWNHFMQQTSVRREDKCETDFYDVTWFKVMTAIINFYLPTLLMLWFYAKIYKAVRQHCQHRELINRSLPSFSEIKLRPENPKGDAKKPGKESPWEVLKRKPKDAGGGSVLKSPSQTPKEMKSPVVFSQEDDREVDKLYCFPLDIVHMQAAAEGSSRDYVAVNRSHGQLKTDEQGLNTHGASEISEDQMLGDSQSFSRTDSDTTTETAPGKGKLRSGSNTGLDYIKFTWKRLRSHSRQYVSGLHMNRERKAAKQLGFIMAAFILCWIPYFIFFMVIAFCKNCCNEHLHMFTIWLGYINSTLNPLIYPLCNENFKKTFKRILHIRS

histamine H3 receptor = histamine H3 receptor (Homo sapiens, UniProt Q9Y5N1); test: Histamine H3 functional antagonist assay; conditions: membranes of CHO K1 cells expressing human H3; [35S]GTPgammaS SPA; histamine 0.3 μM
histamine H3 receptor, sequence (Q9Y5N1 whole entry): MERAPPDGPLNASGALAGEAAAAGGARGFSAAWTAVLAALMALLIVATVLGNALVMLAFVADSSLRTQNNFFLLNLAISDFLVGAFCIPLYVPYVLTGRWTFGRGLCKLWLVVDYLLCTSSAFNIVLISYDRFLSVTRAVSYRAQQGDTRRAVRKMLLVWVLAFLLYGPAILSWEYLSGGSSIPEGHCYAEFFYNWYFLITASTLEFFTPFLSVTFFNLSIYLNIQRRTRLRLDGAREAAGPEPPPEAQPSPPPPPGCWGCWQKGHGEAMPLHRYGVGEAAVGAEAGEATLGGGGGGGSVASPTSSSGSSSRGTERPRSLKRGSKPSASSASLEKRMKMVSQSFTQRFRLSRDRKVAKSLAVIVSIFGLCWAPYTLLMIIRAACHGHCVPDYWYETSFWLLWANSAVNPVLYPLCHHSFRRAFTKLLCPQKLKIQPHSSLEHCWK

SMILES | antagonism in the histamine H1 functional antagonist assay (pKb) (human H1 receptor) | antagonism in the histamine H3 functional antagonist assay (pKb) (histamine H3 receptor) | other results
O=C(c1ccc(Cl)s1)N1CCN(c2ccc(OCCCN3CCCCC3)cc2)CC1 [Example E54] | > 6.5 | > 6.5 | –
CCC1CCC(C)N(CCCOc2ccc(N3CCN(C(=O)c4cccc(Cl)c4Cl)CC3)cc2)C1 (centres unmarked) [Example E131] | > 6.5 | > 6.5 | –
CC1CCCN(CCCOc2ccc(N3CCN(C(=O)c4cccc(Br)c4)CC3)cc2)C1 (centres unmarked) [Example E194] | > 6.5 | > 6.5 | –
O=C(c1c[nH]c2ccc(F)cc12)N1CCN(c2ccc(OCCCN3CCCCC3)cc2)CC1 [Example E55] | > 6.5 | > 6.5 | –
CCOC(=O)Cc1c(C(=O)N2CCN(c3ccc(OCCCN4CCCCC4C)cc3)CC2)c2ccccc2n1C (centres unmarked) [Example E160] | > 6.5 | > 6.5 | –
O=C(C1c2ccccc2Oc2ccccc21)N1CCN(c2ccc(OCCCN3CCCCC3)cc2)CC1 [Example E247, 1-(9H-Xanthen-9-ylcarbonyl)-4-[4-(3-piperidin-1-ylpropoxy)phenyl]piperazine] | > 6.5 | > 6.5 | –
O=C(c1cccc2ccccc12)N1CCN(CCc2ccc(OCCCN3CCCCCC3)cc2)CC1.O=CO [Example E469] | > 7.3 | > 6.5 | antagonism in the histamine H1 functional antagonist assay (pKb) (human H1 receptor; listed as Example E469): > 6.5 pKb
CCC1CCC(C)N(CCCOc2ccc(N3CCN(C(=O)c4ccc(Br)cc4C)CC3)cc2)C1 (centres unmarked) [Example E140] | > 6.5 | > 6.5 | –
CCCc1ccc(C)c(C(=O)N2CCN(c3ccc(OCCCN4CCCC4C)cc3)CC2)c1 (centres unmarked) [Example E125] | > 6.5 | > 6.5 | –
CCC1CCC(C)N(CCCOc2ccc(CCN3CCN(C(=O)c4cccc5ccccc45)CC3)cc2)C1.O=CO (centres unmarked) [Example E474] | > 7.3 | > 6.5 | antagonism in the histamine H1 functional antagonist assay (pKb) (human H1 receptor; listed as Example E474): > 6.5 pKb
CC1(C)CCCN(CCCOc2ccc(N3CCN(C(=O)c4cccc(Br)c4)CC3)cc2)C1.O=C(O)C(F)(F)F [Example E211] | > 7.3 | > 6.5 | antagonism in the histamine H1 functional antagonist assay (pKb) (human H1 receptor; listed as Example E211): > 6.5 pKb
CCc1ccc(C)c(C(=O)N2CCN(c3ccc(OCCCN4CCCCC4C)cc3)CC2)c1 (centres unmarked) [Example E157] | > 6.5 | > 6.5 | –
O=C(O)C(F)(F)F.O=C(c1cccc2ccccc12)N1CCN(c2ccc(OCCCN3CCSCC3)cc2)CC1 [Example E66] | > 6.5 | > 6.5 | –
CCOC(=O)Cc1c(C(=O)N2CCN(c3ccc(OCCCN4CCCCC4)cc3)CC2)c2ccccc2n1C.O=CO [Example E60, ethyl (1-methyl-3-{[4-(4-{[3-(1-piperidinyl)propyl]oxy}phenyl)-1-piperazinyl]carbonyl}-1H-indol-2-yl)acetate] | > 7.3 | > 6.5 | antagonism in the histamine H1 functional antagonist assay (pKb) (human H1 receptor; listed as Example E60): > 6.5 pKb
CC1CCCN1CCCOc1ccc(N2CCN(C(=O)c3cccc4ccccc34)CC2)cc1.O=C(O)C(F)(F)F (centres unmarked) [Example E69] | > 6.5 | > 6.5 | –
Cn1c(CC(=O)O)c(C(=O)N2CCN(c3ccc(OCCCN4CCCCC4)cc3)CC2)c2ccccc21 [Example E62, (1-Methyl-3-{[4-(4-{[3-(1-piperidinyl)propyl]oxy}phenyl)-1-piperazinyl]carbonyl}-1H-indol-2-yl)acetic acid] | > 6.5 | > 6.5 | –
O=C(c1ccc2c(c1)CCCC2)N1CCN(c2ccc(OCCCN3CCCCC3)cc2)CC1 [Example E112] | > 7.3 | > 6.5 | antagonism in the histamine H1 functional antagonist assay (pKb) (human H1 receptor; listed as Example E112): > 6.5 pKb
Cc1ccc(C)c(C(=O)N2CCN(c3ccc(OCCCN(C)C4CCCC4)cc3)CC2)c1 [Example E184] | > 6.5 | > 6.5 | –
COc1cccc(C(=O)N2CCN(c3ccc(OCCCN4CCCCC4)cc3)CC2)c1 [Example E77] | > 6.5 | > 6.5 | –

SMILES | antagonism in the histamine H1 functional antagonist assay (pKb) (human H1 receptor) | antagonism in the histamine H3 functional antagonist assay (pKb) (histamine H3 receptor) | other results
O=C(c1cccc(-c2ccccn2)c1)N1CCN(c2ccc(OCCCN3CCCCC3)cc2)CC1 [Example E88] | > 6.5 | > 6.5 | –
Cc1cc(N2CCN(CCc3ccc(OCCCN4CCCCC4)cc3)CC2)c2ccccc2n1 [Example E239] | > 6.5 | > 6.5 | –
Cc1ccc(C(C)C)c(C(=O)N2CCN(c3ccc(OCCCN4CCCCC4C)cc3)CC2)c1 (centres unmarked) [Example E152] | > 6.5 | > 6.5 | –
O=C(O)C(F)(F)F.O=C(c1cccc2ccccc12)N1CCN(c2ccc(OCCCN3CCOC4CCCCC43)cc2)CC1 (centres unmarked) [Example E73] | > 6.5 | > 6.5 | –
CC1CCCN(CCOc2ccc(CCN3CCN(C(=O)c4cccc5ccccc45)CC3)cc2)C1.O=CO (centres unmarked) [Example E476] | > 6.5 | > 6.5 | –
CCC1CCC(C)N(CCCOc2ccc(N3CCN(C(=O)c4ccc(OC)c(C(C)C)c4)CC3)cc2)C1 (centres unmarked) [Example E147] | > 6.5 | > 6.5 | –
COc1ccc(C(=O)N2CCN(c3ccc(OCCCN4CCCCC4C)cc3)CC2)cc1C(C)C (centres unmarked) [Example E153] | > 6.5 | > 6.5 | –
COc1ccc(C(=O)N2CCN(c3ccc(OCCCN4CCCCC4)cc3)CC2)cc1C#N [Example E97] | > 6.5 | > 6.5 | –
COc1ccc(C(=O)N2CCN(c3ccc(OCCCN4CCCCC4)cc3)CC2)cc1C [Example E121] | > 6.5 | > 6.5 | –
CCCc1ccc(C)c(C(=O)N2CCN(c3ccc(OCCCN4CCCC(C)C4)cc3)CC2)c1 (centres unmarked) [Example E190] | > 6.5 | > 6.5 | –
O=C(c1cccc2ccccc12)N1CCN(c2ccc(OCCCN3CCCCCCC3)cc2)CC1 [Example E70] | > 7.3 | > 6.5 | antagonism in the histamine H1 functional antagonist assay (pKb) (human H1 receptor; listed as Example E70): > 6.5 pKb
CCc1ccc(C)c(C(=O)N2CCN(c3ccc(OCCCN4CCCC(C)(C)C4)cc3)CC2)c1.O=C(O)C(F)(F)F [Example E208] | > 7.3 | > 6.5 | antagonism in the histamine H1 functional antagonist assay (pKb) (human H1 receptor; listed as Example E208): > 6.5 pKb
Cc1c(C(=O)N2CCN(c3ccc(OCCCN4CCCC(C)C4)cc3)CC2)c2ccccc2n1C (centres unmarked) [Example E200] | > 6.5 | > 6.5 | –
COc1c(C)cc(C)cc1C(=O)N1CCN(c2ccc(OCCCN3CCCCC3)cc2)CC1 [Example E106] | > 6.5 | > 6.5 | –
O=C(O)C(F)(F)F.O=C(c1cccc(Cl)c1Cl)N1CCN(c2ccc(OCCCN3CCCCCCC3)cc2)CC1 [Example E171] | > 7.3 | > 6.5 | antagonism in the histamine H1 functional antagonist assay (pKb) (human H1 receptor; listed as Example E171): > 6.5 pKb
CCc1cccc(C(=O)N2CCN(c3ccc(OCCCN4CCCCC4)cc3)CC2)c1 [Example E82] | > 6.5 | > 6.5 | –
COc1ccc(Cl)cc1C(=O)N1CCN(c2ccc(OCCCN3CCCCC3)cc2)CC1 [Example E120] | > 6.5 | > 6.5 | –
O=C(c1cccc2ccccc12)N1CCN(CCc2ccc(OCCCN3CCCC3)cc2)CC1.O=CO [Example E470] | > 7.3 | > 6.5 | antagonism in the histamine H1 functional antagonist assay (pKb) (human H1 receptor; listed as Example E470): > 6.5 pKb
